# Measurements taken from the supplement of paper PMC11417369.
# The other results are listed elsewhere or left out.
# Test system: PfSIP2 AP2 domain 1 (GST-tagged)
# Assay: gcPBM binding intensity (ln(normalized median fluorescence intensity)); higher = stronger DNA binding
# Summary of the method: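 In this array assay, P. falciparum DNA-binding domains with a GST tag, expressed in E. coli, were applied for 1 h to primer-extended double-stranded 36-bp intergenic genomic probes and negative controls on an Agilent 4 × 180k array. Bound protein was visualised with Alexa488 anti-GST antibody at 488 nm. Binding intensity is the highest Masliner-normalised natural-log median intensity across replicate spots of either probe orientation.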
row,Sequence,gcPBM binding intensity (ln)
1,TATTTATATGTATATACATGCACATATATATGAAAC [TGCATGCA_site1005],7.7
2,CTATTTTATATGTGCACACATATACTCAGACAAATA [CACACA_site4761],9.42
3,ACCTATATACTAAATGCACACTTATATATTTATATA [CACACA_site5371],7.63
4,TAATTCGCATTTTATACACACATTCGAACCTTTTTT [CACACA_site7549],6.96
5,AAATTAATACATTATTGTACTTTTCATGTGCAGAAA [XGTACX_site8284],7.02
6,CATATTACATTAAATTGTACATATATATATATATAT [XGTACX_site3295],9.7
7,CGGATGAATATATATGCACACATCTTTTGTAAAAAT [CACACA_site3190],7.6
8,TGTATAAATATATGCACACATATATATATTTATATA [CACACA_site3473],7.31
9,TCAATAAATGAATATGCATGCACGCTCTTTAGAGAT [TGCATGCA_site553],8.67
10,GAGAAAAAAAAAAAAAAACACACGGTACATTCAAAG [CACACA_site1767],6.76
11,ATATTTATAAATTGCACACAAATAATAACATTCTAT [CACACA_site2357],7.02
12,TATTATTATTATGGTAGTACATGTAGGTTATTAAAA [XGTACX_site5742],7.31
13,AATTGGGAAGGACATGCATGAGAAATTAATATTGCA [TGCATGCA_site424],6.7
14,AACATACACATATACACACACACATATATACCTATA [CACACA_site6643],7.38
15,TCAATTTTACTTGTTTGTACATAAAATAATAAGGTT [XGTACX_site3732],7.12
16,AAGAAAAAAAAAATTACACACTGCGGACATACACAA [CACACA_site4838],6.91
17,ATATTTTGTTTTTGTTCTTTTTTTTTCTTTTTTTTT [CACACA_negctrl_site1342],6.65
18,ATATCTACTATACAACTGAGTGTAGAAAAATTAAAC [CACACA_negctrl_site1211],7.19
19,ACTTTGCTCTACAATGCATGCTCATTTAACAAGGCA [TGCATGCA_site676],7.24
20,TATATTAAATGAAACAAACACACATAGCCTTTAAAT [CACACA_site1559],6.9
21,AATATATTTAATCATACACACATTTATGTACCTATA [CACACA_site1718],7.02
22,TCGCCCTACAATTTGTTTATATATTAAATAAAATTT [CACACA_negctrl_site883],7.31
23,TGAAATTCCATAAAATGTACATATTAGTTTAATTCA [XGTACX_site4031],6.75

row,Sequence,gcPBM binding intensity (ln)
1,CATCATCTTTTAAAGGTGCATAATAATATTGTTAAT,11.1
2,ATGTTCTTTAAAACCACACACCCCCCAACCCCCCTC [CACACA_site2373],9.7
3,GTCTATTATTTTTGAAGTACAAAAATTTTAGTTAAA [XGTACX_site4708],7.26
4,AAAAATAAATATATATGTACACATATGTATACAATA [XGTACX_site4692],7.03
5,GAAATAAATATAATATATATATATATATATATATGT [TGCATGCA_negctrl_site216],7.9
6,GGTATACACAGACATGCATGTAATTATATATAGGGA [TGCATGCA_site83],7.33
7,TTACAACATGAAAATGTGCACATATATATATATATA,9.25
8,TGAATTAAGATTTATTGTACATAATTTATACCATAT [XGTACX_site7034],6.88
9,TAAATTTATAGACACACACACATATAAATAAATATA [CACACA_site6530],7.08
10,ATATAATATATATATTGTACATATATTTATAAGCAT [XGTACX_site3726],7.04
11,TATATATATATATATTGTACATTTACCAAATTGTGT [XGTACX_site5791],9.42
12,AATGTGCTCGCTATTACACACTCATTGGGATAAACT [CACACA_site7043],6.79
13,TATATAAATAAATATACACACATATATAAATATACA [CACACA_site2982],6.81
14,TTTTTTTTTTTTTGCACACTTAAATTTGGAGTGTAG [CACACA_site2345],7.65
15,TTTAATAATAATACTAGTACACATTCTTTATTATTT [XGTACX_site2671],7.14
16,AAAGTAAAAAATCATAGTACACATTTAAATATATAT [XGTACX_site2323],7.12
17,TAATATATCAAATGAAGTACTCACATATACATAATA [XGTACX_site6051],6.85
18,GGTATATATTTATAATGTACATATTCATATATATAA [XGTACX_site3291],7.25
19,TTTTTTAAATTATGTAGTACGATTCATTTTTTATAA [XGTACX_site1101],6.89
20,AAGATTTTCCTTGATAGTACACTTATGAAAATTTGT [XGTACX_site3047],6.92
21,AATATCTTAGTGGATACACACATATAAATGTGGATT [CACACA_site485],6.72
22,ATATATTACGACTTCTGTACATAATATATAAAAGAA [XGTACX_site2353],7
23,TTTTTTTTTTTTTTTTTTTTTTTGTCTTATTTTTTT [GTGCAC_negctrl_site338],6.81

row,Sequence,gcPBM binding intensity (ln)
1,TATATATCAATATGCACACACAAGAAGTAATTATAA [CACACA_site7487],8.2
2,TAAAAAGTATATAAGAGTACACATATTTATAAATAT [XGTACX_site3084],7.16
3,AGACTTTGTACAAACACACACATGAGCACAATATTA [CACACA_site6755],7.26
4,AACAAATTTTTTTTTCCTTTTTTTTTTTTACTTCAT [CACACA_negctrl_site1214],6.52
5,ATAAACAAAGTTAAATGTACAAAGGGGTAAAAAAAA [XGTACX_site83],6.9
6,ACACAATTGAAATAGTGTACAAAATGTTGTTACATA [XGTACX_site8671],6.94
7,TTATTAACCAAACGCACATGCAAAATATATTATATA [TGCATGCA_site915],7.09
8,AAATAAATAATATGTAAACACACAAAAAATAAAAAT [CACACA_site8307],6.96
9,TTTTTTTTTCGGAAAAGTACAAAACTTTTTTATAAT [XGTACX_site4670],6.88
10,TTTTTTTTTTTCGGGGGTACTAATATATTATTAATA [XGTACX_site7809],8.37
11,GTTTTTAAGAAAAACACACACTCCTGTTATTTTATA [CACACA_site3696],6.92
12,AACAAAATTGAAGGAACACACATACAGATATATATA [CACACA_site4264],7.16
13,TAATAATTAATTAATATAATATTTTTTCATAATTAT [XGTACX_negctrl_site602],6.82
14,ATAGAAAAAATATACACACACTTATTAAATAAAAAT [CACACA_site7540],6.91
15,CATGTGCATATTAAATGTACATATATACATATATAC [XGTACX_site857],7.74
16,ATATAGGTATTTAATACACACAAAACTTTCATTCCA [CACACA_site7627],6.99
17,AAGGATGATACAACTTGTACATATTTGCTTAATATA [XGTACX_site764],6.8
18,ATATAAATATATTGCACACACAATTATTATTATTAT [CACACA_site7147],7.15
19,TATAATGTTAAATAATGTACATATTTTTTTTTTTTT [XGTACX_site4721],7
20,AAAGCTAATATTATATGTACTTATATATTTATATAT [XGTACX_site4474],7.04
21,ATATAAATCTACACCGCACACAAAAACAACAAATAT [CACACA_site2506],7.35
22,AAATAAATGAAACACACACACACAAAAAAAAAAAAC [CACACA_site2625],7
23,AGGATACACAGACACACACACATATATATATATATA [CACACA_site907],9.2

row,Sequence,gcPBM binding intensity (ln)
1,TAAATAGATGTTTTATGTACGTATAAATAAAAAAAA [XGTACX_site3412],6.95
2,TTTTTTTAAAGACATGCATGTAATATTTAAATCATT [TGCATGCA_site495],6.94
3,ATTAAAAATATAGTCACACATACACCCATATATATT [CACACA_site5394],6.92
4,AATATATTTTTTCACTGTACTTTTATTATATATACA [XGTACX_site8312],7.26
5,AAAAAAAATGGATGATCACACACTTCATAAAAATTG [CACACA_site2213],6.85
6,ATAATTTTTTGATTTGCATGTAATAAATATATGATA [TGCATGCA_site384],7.01
7,GATTTTTTTTTGTGGACACACAGAAATAAATTTATA [CACACA_site327],7.04
8,ATACAACGATATATATATATACAAATACATATTTAT [CACACA_negctrl_site268],7.15
9,CACATACAGATATATACACACAAATATATATACTCA [CACACA_site4591],7.29
10,TTTGTAAAACTATATTGTACTTTTATATATCTACAA [XGTACX_site5507],6.9
11,ACAACTCGGAAGGTTTGTACTTAAAGTATAATTAAG [XGTACX_site737],6.95
12,AATTGGAAGAAAAAAAAGGAAGGAAAGTTATTACAT [GTGCAC_negctrl_site74],6.49
13,TATATACATGCATATACACACATATATTTATTTATA [CACACA_site6327],7.03
14,TCATACATGGTGTGTTTGCACTTGACCTATATTCAT,7.57
15,TCTTGAATAACAAAAAAATGTGCCAACAAAATAAAT [XGTACX_negctrl_site172],7.08
16,GTATATATGTATGTATGTACGTATATAGTTATGTAT [XGTACX_site6769],7.42
17,ATAAAAAAATTAAATACATGCACATATACACATACA [TGCATGCA_site129],7.81
18,TACTGAAATAATTATTTAAACGTTTTTATATGTATT [CACACA_negctrl_site487],6.81
19,TTTATTTTTTCCAAGTCACACATGTTTTGATATATT [CACACA_site4946],7.04
20,TTTTTTAACCTTTTATGTACACAATATTTAACATTT [XGTACX_site1170],7.08
